Laboratory results as given in the supplement of paper PMC3334620.
Over roughly 33,000 sequences, “E-score (-0.5 to 0.5)” has its median near -0.054; the highest 2% begin near 0.35. The list shows a part of the results.

What follows are sequences tested against T1, Stb5 (UniProt P38699) (assay: PBM E-score (8-mer binding enrichment) (E-score (-0.5 to 0.5)); higher = stronger / more preferred TF binding; most listed sequences are background and not binding sites). Conditions: protein concentration: 200 nM; construct: GST-full length.
T1 sequence: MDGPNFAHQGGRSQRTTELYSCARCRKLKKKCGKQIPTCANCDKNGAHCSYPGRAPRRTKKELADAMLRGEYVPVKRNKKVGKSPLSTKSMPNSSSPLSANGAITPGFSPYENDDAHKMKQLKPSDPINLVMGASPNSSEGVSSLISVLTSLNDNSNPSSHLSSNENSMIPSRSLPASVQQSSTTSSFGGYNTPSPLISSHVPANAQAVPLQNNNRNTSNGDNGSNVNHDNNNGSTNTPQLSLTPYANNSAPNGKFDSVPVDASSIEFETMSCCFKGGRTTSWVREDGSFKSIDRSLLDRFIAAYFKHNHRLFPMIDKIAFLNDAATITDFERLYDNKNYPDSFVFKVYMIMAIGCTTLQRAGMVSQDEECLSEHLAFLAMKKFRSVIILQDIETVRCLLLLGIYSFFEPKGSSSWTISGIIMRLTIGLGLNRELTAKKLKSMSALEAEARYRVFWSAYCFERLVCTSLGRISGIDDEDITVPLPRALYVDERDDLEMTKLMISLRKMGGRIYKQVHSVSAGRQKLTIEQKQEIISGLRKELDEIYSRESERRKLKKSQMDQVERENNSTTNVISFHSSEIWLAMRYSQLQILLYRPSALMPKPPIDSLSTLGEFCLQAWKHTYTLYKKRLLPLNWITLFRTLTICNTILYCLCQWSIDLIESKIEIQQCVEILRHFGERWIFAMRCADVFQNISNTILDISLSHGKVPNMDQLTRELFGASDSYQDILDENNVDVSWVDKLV
Procedure, shortened: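 Universal all-10-mer Agilent arrays, fresh or stripped once, were converted to double-stranded form by primer extension. GST-tagged yeast transcription factors from PURExpress in vitro transcription/translation, full-length or DNA-binding domain only, were applied at about 100-200 nM and detected with fluorescent anti-GST. After masliner normalisation, the Universal PBM Analysis Suite scored each ungapped eight-base word together with its reverse complement by E-score.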

Sequence	PBM E-score
AGTGTCGC	0.0584
AGTGGGAG	-0.247
ATACACCA	-0.0712
ACAACCTG	-0.266
ATAGATAT	-0.083
AGGTAGCG	0.0541
TACACATA	-0.0898
AGGGCTGA	-0.143
ACTGAACA	-0.218
GAGGATAA	-0.0808
AGCAAGAG	-0.28
ACGCCGGC	0.389
GCATATGC	-0.214
AAGTAAAT	0.0828
CTGCTTTC	-0.11
ATGGACAC	-0.112
AGGGCCGA	0.354
CGGTAGCA	0.24
ACGCGGCA	0.189
CAGGATGC	-0.0527
GAAAAGAA	-0.181
AGCTGTGC	-0.0928
AAGCATGC	-0.367
GGTGGGCA	-0.217
CCACTACG	-0.0468

Sequence	PBM E-score
AAACGTCA	-0.201
ATTCGGTC	0.155
GAGACAGA	-0.108
CAACGCGA	-0.172
ACGGACGC	0.133
GTTGGCCA	-0.227
GAACGAGA	-0.0537
ACCGCGCA	0.254
TATGTAAA	0.0251
ATCATCAG	-0.123
CCGGCGCG	0.305
AACAAGCA	0.0225
CGGTTGGA	-0.0239
CCGCTTCG	0.307
AGTATCAA	-0.153
ATTGCAGG	-0.168
AGATGGTG	-0.0983
ATTGAAAT	-0.0501
TTTACAAA	-0.221
ACCTCATG	-0.0767
GCCGCAGC	0.117
GGAGAATA	0.142
GCGGGTGA	0.109
GTTTTAAA	0.0954
CAGAAGCG	-0.0546

Sequence	PBM E-score
CGTGCGGC	0.267
ACCGTAGC	0.0274
GTAATTAC	0.184
GTGTCCAA	-0.144
TAGTTGCA	0.0111
GATATTTA	0.213
CGTCAACC	0.00466
CAGGGAGG	-0.271
CCACGACA	0.0875
CTGTTATC	-0.103
ACGCTGGA	-0.0583
ACCTTTTC	-0.236
TCTAAAAA	-0.0239
CTGCAGTA	-0.119
GTTTGACA	-0.139
TGAAAGAA	-0.0981
CCCGCCGC	0.347
CGGGTAGA	-0.0768
AAGGGGAG	-0.137
CATCACCA	-0.197
CCTCCACG	0.00689
ATTTGCGA	-0.238
ACATAACG	0.123
CCCCGTGC	0.375
CCTTTATA	0.197

Sequence	PBM E-score
CGCGTACC	-0.0838
TACGACAA	-0.132
ATCGCGGA	0.0956
AGCCTTTA	-0.104
GTGCGAAC	0.0102
CTACAGTC	-0.0953
ACCACTCC	0.0502
ACAGGTAT	-0.159
AGAAGATG	-0.239
CCATGTTC	-0.154
AGATCCGG	0.322
AAAAGAAT	0.0457
GACGCGAA	-0.182
ACGCACGT	-0.00612
ACGATAGA	-0.27
CCACCAAC	0.0503
TAAAGACA	-0.0735
GAATGCTC	-0.156
CGCCTCTC	-0.217
CAGGCTGA	-0.209
CTCATAAC	-0.0443
ATGACAAT	-0.289
ACCGGCGT	0.365
ATGAATGC	0.0342
TCGCTACA	-0.28

Sequence	PBM E-score
TCTCGTAA	-0.0135
GTATTCAC	0.135
ATGCTACG	0.0298
AAACGTAC	-0.209
CCCAGTCG	-0.0165
ATACGTAG	-0.0629
GTTCTGCA	-0.0855
AAATTTAA	-0.0122
GAGCATAA	-0.00752
AATTTCTG	-0.236
ACTCAGCC	0.0126
CCGTGCTA	0.119
ACGAGCTG	-0.291
CCATAGGC	0.129
CAAGCGCA	-0.12
CTTCTGAC	-0.0933
ATCACAGG	-0.257
ACATGAAC	-0.0778
TGCTCCAA	-0.376
ATCCTGCG	0.0166
CATTATTC	-0.0342
TCCTTCCA	-0.259
GGGAAGAA	-0.125
ATAGGTCG	0.157
ACACAAGG	-0.19

Sequence	PBM E-score
CATCGTCG	0.059
ACTGCACA	-0.194
ATGCCCAT	-0.348
CGAAGACC	0.0719
CTTTGAGC	-0.102
AGTCGCCA	-0.117
CTCTTAAG	0.035
ATCCCCGG	0.379
CGCAAAAC	0.15
ACTGCACT	-0.244
CACGAATG	-0.143
CTTGAGAC	0.141
CATGACCG	0.0934
AGACCTCT	-0.194
ACGCCTTC	-0.142
ATAGGTAA	-0.117
AGTTAATA	0.0563
AGACAGCT	-0.365
CTCACCGC	0.164
GCACCCGC	0.193
CGAATCGC	-0.00885
AGGGTGAT	-0.298
ACGCTCAC	-0.0611
GTCAGATA	-0.0727
GATACAGC	-0.0161

Sequence	PBM E-score
CTGATTGC	-0.0848
TCTTAAGA	0.0359
CTCGGAGA	0.136
ATATCTAA	-0.197
AAATCGGG	0.212
CTCCAATC	0.0155
ATATTGTC	0.132
CAGACACG	-0.0377
GCCCAACC	-0.196
AACGTGTG	-0.338
ATGCTAAG	-0.0748
AAGAGCCT	-0.249
CTATGGGA	-0.0168
AAGTGCCC	0.0216
ACCTTTCA	-0.118
ACGCGGCG	0.304
GACGATCC	0.00367
GTCCTAGA	-0.078
TGACGTCA	0.158
AAACCATG	-0.102
ATCATAGC	-0.0226
AGAACAGC	0.0171
GAACTACC	0.0225
CTAATCTA	0.0861
CTGCTGAC	-0.189

Sequence	PBM E-score
GAACACGC	0.0746
AATAATGG	0.00766
TAACTAGA	0.04
CAATCACG	-0.027
TGTAAGAA	0.0991
ATAAACAG	0.00266
CGGTTATC	0.175
GGTAGATA	0.0311
AACCCGCT	0.222
ACTGAATA	-0.137
CGAGGTAA	-0.0124
TCCGGCAA	0.258
CTTAGGTA	-0.0714
AACGACTA	-0.107
AGAGACCA	-0.325
ATGATACA	-0.296
AAATACTT	-0.0954
GGCGTAAC	0.136
ACATACGC	0.0346
ACGCACTC	0.00586
AGTAGCAT	-0.127
AAACTTGA	-0.106
AAGACTCA	-0.283
AGTTGCAA	0.0517
GCCCCCCA	-0.279

Sequence	PBM E-score
ATGCTGCA	-0.108
ACTTTTCT	-0.119
GCTACAGC	-0.13
ACTGCCGA	0.242
CACACAAC	-0.151
AAACAGTT	-0.00596
GATTGGCC	-0.0793
ATCCGTTA	0.197
AGTAATCA	-0.045
AGGATGCA	-0.138
GAACGCAC	0.0172
ACGTCCTA	-0.154
CAAAGACA	-0.129
TATTCGGA	0.0697
CGACCGAC	0.271
TGGGCGAA	-0.132
GAACCGGA	0.302
ATATCCGG	0.294
CCTGGTTA	-0.327
